Measurements reported in paper PMC4303303.
These are yes or no findings as the source states them, for the method shown. For some assays here: Binding seen in cells or lysates may run through a third protein. Some entries that bind do so weakly or less than the wild type. For some assays here: Tags and fused reporters may be left off the sequences shown.

Columns and labels:
GST-hnRNP K = GST-hnRNP K (UniProt P61978); assay: pull-down; purified GST, GST-SUMO2 or GST-hnRNP K on glutathione magnetic beads as baits; recombinant FLAG-SETDB1 or Ubc9 as prey; 50 mM Tris pH 8.0, 100 mM NaCl, 1.5 h at 4°C; both purified
[1] = biological target: endogenous hnRNP K (293T cells) (human (endogenous in 293T)) (UniProt P61978); assay: co-IP; IP of endogenous hnRNP K from 293T whole-cell extracts prepared with 20 mM NEM; IgG as control IP
[2] = biological target: KAP1 (mouse (endogenous in TT2 mESCs)) (UniProt Q62318); assay: co-sedimentation; linear 5–50% sucrose gradient ultracentrifugation of mESC nuclear extract prepared with NEM; 27,500 rpm, 4°C, 18.5 h; fractions by western blot
[3] = biological target: KAP1 (mouse (endogenous in TT2 mESCs)) (UniProt Q62318); assay: co-IP; endogenous proteins from mESC nuclear extract with 10 mM NEM (SENP inhibitor); IP with anti-SETDB1, anti-KAP1 or anti-hnRNP K overnight at 4°C; also with or without 50 U/ml DNase I and 50 μg/ml RNase A; western blot
[4] = biological target: full-length wt GST-KAP1, unmodified (UniProt Q13263); assay: pull-down; unmodified GST-tagged wt KAP1, KAP1^PxVxL, KAP1^PB or GST alone as baits; purified 6X-His-tagged hnRNP K as prey; BSA at 1 mg/ml in the binding reaction; washes with 300 mM NaCl; both purified
[5] = biological target: full-length wt GST-KAP1, unmodified (UniProt Q13263); assay: pull-down; SUMOylated or unmodified GST-tagged baits from in vitro SUMOylation reactions on glutathione magnetic beads; purified recombinant 6X-His-tagged hnRNP K as prey; washes with 300 mM NaCl; both purified
[6] = biological target: T1, GST-KAP1^PB (residues 624–811) (UniProt Q13263); assay: condition: 0.5–5 μg recombinant prey proteins in 150 μl; pull-down; unmodified GST-tagged wt KAP1, KAP1^PxVxL, KAP1^PB or GST alone as baits; purified 6X-His-tagged hnRNP K as prey; BSA at 1 mg/ml in the binding reaction; washes with 300 mM NaCl; both purified
T1 sequence: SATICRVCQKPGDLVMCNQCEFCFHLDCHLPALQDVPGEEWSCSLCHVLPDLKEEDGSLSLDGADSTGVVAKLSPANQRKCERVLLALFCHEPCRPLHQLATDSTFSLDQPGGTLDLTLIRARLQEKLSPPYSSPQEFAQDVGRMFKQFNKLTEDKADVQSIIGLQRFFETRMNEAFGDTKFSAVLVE

[7] = biological target: T2, GST-KAP1^PxVxL (residues 379–524) (UniProt Q13263); assay: as above
T2 sequence: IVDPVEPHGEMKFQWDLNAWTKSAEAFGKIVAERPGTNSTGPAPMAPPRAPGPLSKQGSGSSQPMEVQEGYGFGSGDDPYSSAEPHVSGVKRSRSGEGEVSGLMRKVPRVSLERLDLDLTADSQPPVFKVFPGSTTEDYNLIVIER

Substance: Ubc9 (from UniProt P63279 1-158) (enzyme)
- binding (GST-hnRNP K): binds

Substance: endogenous KAP1 (293T cells) (from UniProt Q13263 1-835)
- binding [1]: binds

Substance: heterogeneous nuclear ribonucleoprotein K (hnRNP K) (from UniProt P61979 1-463)
- binding [2]: binds
- binding [3]: binds

Substance: purified recombinant 6X-His-tagged hnRNP K (from UniProt P61978 1-463)
- binding [4]: binds
- binding [5]: binds
- binding [6]: no binding
- binding [7]: no binding
